62 compounds from US20090143279A1 (priority 2007, published 2009) can be followed below.

The subject of this assay is cellular ATP levels. The note with it: for ATP (composite Z-score): normalized score vs mock-treated (DMSO) wells.
Where [1] appears, read: composite Z-score vs DMSO, Conc 20 μM.
The mark [2] stands for this setting: 20 μM, composite Z-score vs DMSO.
Where [3] appears, read: composite Z-score vs mock-treated (DMSO) wells, Conc 20 μM.
Where [4] appears, read: composite Z-score vs DMSO wells, Conc 20 μM.
[5] abbreviates: normalized composite Z-score vs mock-treated (DMSO) wells, Conc 20 μM.

Like-named read-outs stand apart in the source and are kept apart here.

Regarding `C=C1C(=O)O[C@@H]2C[C@@]3(C)CCC[C@H](C)C3=C[C@H]12` [helenine], the ATP under setting [1] is recorded as −8.064.
As for `COc1ccc([C@@H]2CC(=O)c3c(O)cc(O[C@@H]4O[C@H](CO[C@@H]5O[C@@H](C)[C@H](O)[C@@H](O)[C@H]5O)[C@@H](O)[C@H](O)[C@H]4O)cc3O2)cc1O` [hesperidin], the ATP under setting [2] turned out to be 0.769.
With `CC1(C)S[C@@H]2[C@H](N3C(=O)[C@@H](c4ccccc4)NC3(C)C)C(=O)N2[C@H]1C(=O)O` [hetacillin], the ATP under setting [1] was 1.231.
As to `COc1cc(O)c2c(=O)cc(C)oc2c1CC=C(C)C` [heteropeucenin, methyl ether], the ATP under setting [3] is on record as −0.142.
For `Oc1c(Cl)cc(Cl)c(Cl)c1Cc1c(O)c(Cl)cc(Cl)c1Cl` [hexachlorophene], the ATP under setting [4] is recorded as −5.584.
`C[N+](C)(C)CCCCCC[N+](C)(C)C` [hexamethonium bromide]: under setting [4], the ATP turned out to be 0.695.
For `O=c1cc(-c2cc(O)c(O)c(O)c2)oc2cc(O)cc(O)c12` [hieracin, reference compound], the “ATP (composite Z-score)” value (Conc 20 μM) is 0.806. This compound yielded an ATP (Table 4, C2C12 myotubes, 48 h, composite Z-score) of 0.806.
For `COc1ccc2c(c1)O[C@H]1c3ccc(OC)cc3OC[C@@H]21` [homopterocarpin], the ATP under setting [5] is listed as 0.381.
Under setting [2], `CCCC(=O)O[C@]1(C(=O)CO)CC[C@H]2[C@@H]3CCC4=CC(=O)CC[C@]4(C)[C@H]3[C@@H](O)C[C@@]21C` [hydrocortisone butyrate] yielded an ATP of −0.353.
Under setting [5], `C[C@@H]1CC[C@@]2(OC1)O[C@H]1C[C@H]3[C@@H]4CC[C@H]5C[C@@H](O)CC[C@]5(C)C4=CC[C@]3(C)[C@H]1[C@@H]2C` [hydroxy (3beta)isoallospirost-9 (11)-ene] registered an ATP of −0.703.
On to `COc1cc2c(cc1-c1coc3c4c(c(OC)cc3c1=O)OC(C)(C)C=C4)OCO2` [ichthynone, reference compound], for which, under “Conc 20 μM”, the “ATP (composite Z-score)” value is on record as −0.541.
`O=[N+]([O-])NC1=NCCN1Cc1ccc(Cl)nc1` [imidacloprid] came in with an ATP under setting [1] of −0.094.
Turning to `CC(=O)N(CC(O)CO)c1c(I)c(C(=O)NCC(O)CO)c(I)c(C(=O)NCC(O)CO)c1I` (stereo not drawn) [iohexol], the ATP was determined as 0.395.
The compound `COc1c(O)cc(O)cc1O` [iretol] had an ATP under setting [3] of −0.628.
Same read-out and setting: the result for `COc1cc(-c2coc3cc(O[C@@H]4O[C@H](CO)[C@@H](O)[C@H](O)[C@H]4O)c(OC)c(O)c3c2=O)cc(O)c1OC` [iridin] reads 0.161; that for `COc1cc(-c2coc3cc(OC)c(OC)c(OC)c3c2=O)cc(OC)c1OC` [irigenin trimethyl ether], 0.108.
`COc1cc(-c2coc3cc(OCc4ccccc4)c(OC)c(O)c3c2=O)cc(O)c1OC` [irigenin, 7-benzyl ether] had an ATP under setting [3] of −0.373.
For the compound `O=c1c(-c2cc(O)c(O)c(O)c2)coc2cc(O)c(O)c(O)c12` [irigenol], under setting [1], the ATP is recorded as 0.611.
`CC(=O)Oc1cc(-c2coc3cc(OC(C)=O)c(OC(C)=O)c(OC(C)=O)c3c2=O)cc(OC(C)=O)c1OC(C)=O` [iriginol hexaaceatate]: the ATP under setting [3] was 0.302.
For the compound `COc1cc2occc2c2oc(=O)ccc12` [isobergaptene], the ATP under setting [3] is −0.303.
The same measure, in the same setting: the result for `Cc1cc(=O)c2c(O)cc(O)c(C)c2o1` [isoeugenitol] reads 0.995.
Same read-out and setting: in the case of `CC(=O)O[C@@H]1CC2C(C)(C)C=CC(=O)[C@]2(C)C2CC[C@@]3(C)[C@H](c4ccoc4)OC(=O)C4OC43[C@@]21C` (stereo partly drawn) [isogedunin] it was −0.722.
Under setting [5], `COc1ccc(-c2cc(=O)c3c(O)cc(O)c(-c4cc(-c5cc(=O)c6c(O)cc(O)cc6o5)ccc4OC)c3o2)cc1` [isoginkgetin] gave an ATP of −0.550.
The compound `C=C1CCC2C(CC2(C)C)C(=O)CCC1O` (stereo not drawn) [isokobusone] returned an ATP under setting [1] of −0.166.
The same measure, in the same setting: in the case of `COc1cc(O)ccc1C(C)=O` [isopeonol] it was 2.649.
For the compound `COc1cc2c(cc1OC)[C@@H]1C(=O)c3ccc4oc(C(C)C)cc4c3O[C@@H]1CO2` [isorotenone, reference compound], the ATP under setting [5] is given as −5.273.
Under setting [3], `CC=Cc1ccc2c(c1)OCO2` [isosafrole] returned an ATP of 0.369.
Still for that read-out and setting: the result for `COc1ccc(-c2coc3c(OC)c(OC)cc(OC)c3c2=O)cc1` [isotectorigenin trimethyl ether] reads −0.305.
`COc1cc(O)c2c(=O)c(-c3ccc(O)cc3)coc2c1OC` [isotectorigenin, 7-methyl ether]: the “ATP (composite Z-score)” value (Conc 20 μM) is listed as −1.101.
`Cc1cc(NC(=O)C2=C(O)c3ccccc3S(=O)(=O)N2C)no1` [isoxicam]: the ATP under setting [4] is 0.708.
In the case of `CC(COc1ccccc1)NC(C)C(O)c1ccc(O)cc1` (stereo not drawn) [isoxsuprine], the ATP under setting [1] is on record as −0.160.
Under setting [1], `O=C(O)/C=C/C=C/c1ccccc1` [juarezic acid] showed an ATP of 0.624.
For `O=C(c1ccccc1)c1ccc2n1CCC2C(=O)O` (stereo not drawn) [ketorolac], the ATP runs as follows: (composite Z-score vs DMSO, Conc 10.62 μM) −0.629; under setting [1], −0.259.
With `CCC(=O)OC1[C@@H]2CC3=C4CC(=O)O[C@@H](c5ccoc5)[C@]4(C)CCC3[C@@](C)(C2=O)[C@@H](CC(=O)OC)C1(C)C` (stereo partly drawn) [khayasin C], under setting [3], the ATP is given as −0.324.
On the same count and under the same terms, the result for `CCC(C)C(=O)OC1[C@@H]2CC3=C4CC(=O)O[C@@H](c5ccoc5)[C@]4(C)CCC3[C@@](C)(C2=O)[C@@H](CC(=O)OC)C1(C)C` (stereo partly drawn) [khayasin] reads 0.871; that for `CC(=O)O[C@H]1C[C@@H](OC(C)=O)C(C)(C)[C@@H]2C[C@@H](OC(C)=O)[C@]3(C)[C@H](CC[C@@]4(C)[C@H](c5ccoc5)OC(=O)[C@H]5O[C@@]534)[C@@]12C` [khivorin], −0.294.
With `OC[C@H]1O[C@@H](n2cnc3c(NCc4ccco4)ncnc32)[C@H](O)[C@@H]1O` [kinetin riboside], under setting [1], the ATP is reported as −2.070.
Still for that read-out and setting: the result for `COc1ccc(-c2coc3cc(O)ccc3c2=O)c(OC)c1O` [koparin 2′-methyl ether] reads −0.071.
As to `COc1c(O)cc2c(-c3ccccc3)cc(=O)oc2c1OC` [kuhlmannin], the “ATP (composite Z-score)” value (Conc 20 μM) is recorded as 1.119.
`NCCC(=O)c1ccccc1N` [kynuramine] returned an ATP under setting [5] of 2.131.
The compound `Nc1ccccc1C(=O)CC(N)C(=O)O` (stereo not drawn) [kynurenine] gave an ATP under setting [5] of 0.528.
In the case of `C[C@@H]1CC[C@H]2[C@](C)(CO)[C@@H](O)CC[C@]2(C)[C@@]12CC[C@@](CO)(CCO)O2` [lagochilin], the “ATP (composite Z-score)” value (Conc 20 μM) is reported as −0.029.
`CC(=O)O[C@H]1C[C@H](O[C@H]2[C@@H](O)C[C@H](O[C@H]3[C@@H](O)C[C@H](O[C@H]4CC[C@@]5(C)[C@H](CC[C@@H]6[C@@H]5C[C@@H](O)[C@]5(C)[C@@H](C7=CC(=O)OC7)CC[C@]65O)C4)O[C@@H]3C)O[C@@H]2C)O[C@H](C)[C@H]1O[C@@H]1O[C@H](CO)[C@@H](O)[C@H](O)[C@H]1O` [lanatoside C] had an ATP under setting [4] of 0.349.
On the same count and under the same terms, the result for `CC(C)=CCC1=C(O)C(=O)c2ccccc2C1=O` [lapachol] reads −0.409.
Turning to `C=C[C@@](C)(O)CC[C@H]1C(=C)C[C@H](O)[C@H]2C(C)(C)CCC[C@]12C` [larixol], under “Conc 20 μM”, the “ATP (composite Z-score)” value was found to be 0.051.
Turning to `CC[C@@H](C(=O)[C@@H](C)[C@@H](O)[C@H](C)CCc1ccc(C)c(O)c1C(=O)O)[C@H]1O[C@](CC)([C@H]2CC[C@](O)(CC)[C@H](C)O2)C[C@@H]1C` [lasalocid, reference compound], the ATP under setting [1] is −0.906.
`COC(=O)c1c(C)c2c(c(C)c1OC)OC(=O)c1c(C)c(Cl)c(OC)c(Cl)c1O2` [leoidin dimethyl ether] returned an ATP under setting [5] of 0.448.
`COC(=O)c1c(C)c2c(c(C)c1O)OC(=O)c1c(C)c(Cl)c(O)c(Cl)c1O2` [leoidin] gave an ATP under setting [1] of −0.082.
In the case of `CC1=CC(=O)C2=C(C)CC[C@@H]3[C@H](OC(=O)[C@H]3C)[C@@H]12` [leucodin], under “Conc 20 μM”, the “ATP (composite Z-score)” value is listed as −1.027.
On to `CC1=CC(=O)C2=C(C)CC[C@@H]3[C@H](OC(=O)[C@H]3C)[C@@H]12` [leucomisine], for which the “ATP (composite Z-score)” value (Conc 16.24 μM) is listed as −0.558.
Turning to `CC1(C)O[C@H]2CC(=O)OC[C@]23[C@H]2CC[C@@]4(C)[C@H](c5ccoc5)OC(=O)[C@H]5O[C@]54[C@]2(C)C(=O)C[C@@H]13` [limonin], the ATP under setting [1] is −0.078.
For the compound `CC(C)(C#N)O[C@@H]1O[C@H](CO)[C@@H](O)[C@H](O)[C@H]1O` [linamarin], the “ATP (composite Z-score)” value (Conc 20 μM) is 0.025.
As to `O=C1C[C@@H](c2ccc(O)cc2)Oc2cc(O)ccc21` [liquiritigenin], the ATP under setting [5] is reported as −0.998.
Compound `CCCCCc1c2c(cc(O)c1C(=O)O)OC(=O)c1c(cc(OC)cc1C(=O)CCCC)O2` [lobaric acid] registered an ATP under setting [1] of −0.552.
Take `C[C@@H]1[C@H]2[C@H](O[C@@H]3O[C@H](CO)[C@@H](O)[C@H](O)[C@H]3O)OC=C(C(=O)O)[C@H]2C[C@@H]1O` [loganic acid]: the “ATP (composite Z-score)” value (Conc 20 μM) is listed as −0.276.
Under setting [1], `O=C1CC[C@]23/C=C/C(=O)NCCCCNCCCNC(=O)/C=C/c4ccc(c2c4)O[C@@H]3C1` [lunarine] registered an ATP of 0.517.
Still for that read-out and setting: the result for `C[C@@H]1C[C@H]2CC(=O)[C@H]3CCCN4CCC[C@H]2[C@]34C1` [lycopodine] reads −0.283.
Regarding `Oc1ccc2c(c1)OC[C@H]1c3cc4c(cc3O[C@@H]21)OCO4` [maackiain], the “ATP (composite Z-score)” value (Conc 20 μM) came to 1.146.
On to `COC(=O)Nc1nc2ccc(C(=O)c3ccccc3)cc2[nH]1` [mebendazole, methyl[5-benzoyl-benzimidazol-2-carbamate], reference compound], for which the ATP was 0.344 (13.54 μM, composite Z-score vs DMSO) and −0.483 under setting [2].
For `CCN(CC)CCNC(=O)COc1ccc(OC)cc1` [mefexamide], the ATP is −0.271 (14.26 μM, composite Z-score vs DMSO) and −0.606 under setting [2].
For the compound `N[C@@H](Cc1ccc(N(CCCl)CCCl)cc1)C(=O)O` [melphalan], under setting [4], the ATP was 1.590.
The same measure, in the same setting: the result for `C[N+]1(C)CCCC(OC(=O)C(O)(c2ccccc2)c2ccccc2)C1` (stereo not drawn) [mepenzolate] reads 0.633.
